# Source: PubChem BioAssay AID743286 (National Center for Advancing Translational Sciences (NCATS), 2014)
# Among all 1,100 compounds or so, about 340 (31%) were called active. This list was built around the results that the source calls inconclusive (neither active nor inactive); the mix of calls is not that of the screen. The call rests on the fitted dose curve; in most records, active means well fitted inhibition curve with a large enough effect; inconclusive means small, poorly fitted or top-dose-only effect; inactive means flat fitted curve, though single readings scatter. Potencies beside an inconclusive call are fits to weak or partial responses and may not hold up.
# Target: Phosphatidylinositol 5-phosphate 4-kinase type-2 alpha (Homo sapiens) (UniProt P48426)
# Chain of UniProt P48426 (P48426 whole entry, looked up): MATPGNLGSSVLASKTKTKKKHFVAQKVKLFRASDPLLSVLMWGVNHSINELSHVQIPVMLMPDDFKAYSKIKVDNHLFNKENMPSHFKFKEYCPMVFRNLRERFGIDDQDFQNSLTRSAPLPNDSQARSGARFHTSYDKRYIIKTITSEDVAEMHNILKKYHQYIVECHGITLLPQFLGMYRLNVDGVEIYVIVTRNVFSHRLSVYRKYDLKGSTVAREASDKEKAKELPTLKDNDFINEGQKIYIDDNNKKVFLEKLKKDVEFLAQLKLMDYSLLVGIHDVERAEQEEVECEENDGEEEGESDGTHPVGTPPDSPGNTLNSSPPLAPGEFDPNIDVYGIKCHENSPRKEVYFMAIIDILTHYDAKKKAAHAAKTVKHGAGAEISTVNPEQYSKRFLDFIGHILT
# Assay: qHTS for Inhibitors of PI5P4K: Confirmation in Primary Assay; further: nearly all actives have a fitted effect of over 65% in size
# Conditions: PI5P4Kalpha enzyme, ADP-Glo luminescence, 60 min; series mostly up to 76.9 µM
# Procedure, shortened: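 PI5P4Kα with lipid substrate in 0.038 M HEPES pH 7.4, 0.28 mM EGTA, 0.1% CHAPS, 5% DMSO; compounds pinned in, reaction started with 5 microM ATP, 60 min at room temperature. ADP formed read by ADP-Glo luminescence.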
# Potency means the concentration at half of the fitted maximal effect; tags describe the fitted curve by direction and shape.
row,SMILES,Potency
1,Cn1nnc2cc(C(=O)NC3CC3)ccc21,inactive
2,COc1ccc2c(CC(=O)N3CCN(S(=O)(=O)c4ccc(F)cc4)CC3)coc2c1,"inconclusive: 25.1 µM [inhibitor, partial curve]"
3,Cc1cc(NC(=O)CCCn2cc([N+](=O)[O-])cn2)n(Cc2ccc(F)cc2)n1,inactive
4,O=c1oc2cc(O)ccc2cc1-c1ccc(F)cc1,inactive
5,Cc1ccc(NC(=O)N2CCC(NC(=O)c3cccc(C)c3)CC2)cc1,"inconclusive: 25.1 µM [inhibitor, partial curve]"
6,COc1ccc(-c2nnn(CC(=O)N(CC(=O)NC3CCCC3)c3ccccc3)n2)cc1OC,inactive
7,Clc1cccc(Cc2c(-c3ccco3)nc3ccc(Br)cn23)c1,"inconclusive: 28.2 µM [inhibitor, partial curve]"
8,O=C(NCc1ccccc1)c1cc2ccc(O)cc2oc1=O,"inconclusive: 15.8 µM [inhibitor, partial curve]"
9,Cc1ccc(C)c(S(=O)(=O)Nc2ccc3oc(C)c(C(=O)O)c3c2)c1,active: 15.8 µM
10,Cc1ccc([N+](=O)[O-])cc1S(=O)(=O)Nc1ccc(C(=O)N2CCN(C(=O)c3ccco3)CC2)cc1,"inconclusive: 35.5 µM [inhibitor, partial curve]"
11,Cc1ccc(-c2csc(NC(=O)c3ccno3)n2)cc1,active: 28.2 µM
12,NS(=O)(=O)c1cc(C(=O)NC2CCSc3ccccc32)ccc1Cl (centres undefined),active: 0.891 µM
13,O=C(Cn1cnc2scc(-c3cccc([N+](=O)[O-])c3)c2c1=O)NCc1ccco1,active: 11.2 µM
14,COc1n[nH]c(C(=O)Nc2nc3ccccc3s2)c1[N+](=O)[O-],"inconclusive: 28.2 µM [inhibitor, partial curve]"
15,Nc1nc(Nc2ccccc2)sc1C(=O)c1ccccc1,active: 7.94 µM
16,O=C(O)c1ccc(NS(=O)(=O)c2ccc3c(c2)C2C=CCC2C(c2ccccc2F)N3)cc1 (centres undefined),"inconclusive: 22.4 µM [inhibitor, partial curve]"
17,NC(=O)c1c(NC(=O)CN2CCN(S(=O)(=O)c3ccccc3)CC2)sc2c1CCC2,"inconclusive: 8.91 µM [inhibitor, partial curve]"
18,Oc1cc2c(cc1C(c1ccc(Cl)c(Cl)c1)N1CCCC1)OCO2 (centres undefined),active: 12.6 µM
19,O=C(NC1CCCCC1)C(c1cc2ccccc2o1)n1c(=O)c(-c2ccco2)nc2ccccc21 (centres undefined),"inconclusive: 15.8 µM [inhibitor, partial curve]"
20,Cc1ccc(S(=O)(=O)N(CC(=O)Nc2ccccc2C(=O)O)c2ccccc2C)cc1,"inconclusive: 28.2 µM [inhibitor, partial curve]"
21,O=c1cc(CSc2ccc(Cl)cc2)nc2nc[nH]n12,"inconclusive: 15.8 µM [inhibitor, partial curve]"
22,Cc1nnc(SCC(=O)NC(=O)NCc2ccco2)n1Cc1ccccc1,"inconclusive: 14.1 µM [inhibitor, partial curve]"
23,COc1ccc(CCCc2nnc(SCc3nc4ccccc4c(=O)[nH]3)n2C)cc1,inactive
24,COc1ccc(N(C(=O)C2CSC(=O)C2)C(C(=O)NC(C)(C)C)c2ccncc2)cc1 (centres undefined),inactive
25,COc1ccc2ccccc2c1C1CC(=O)N2CN(C3CCCCC3)CSC2=C1C#N (centres undefined),active: 15.8 µM

row,SMILES,Potency
1,Cc1ccsc1CN(C)c1ncnc2ccc(-c3ccoc3)cc12,"inconclusive: 31.6 µM [inhibitor, partial curve]"
2,COc1cc(C(=O)Nc2scc(-c3ccc(Br)cc3)c2C(=O)O)cc(OC)c1OC,active: 5.62 µM
3,CCOC(=O)Cc1csc(NC(=O)Cc2cccs2)n1,"inconclusive: 15.8 µM [inhibitor, partial curve]"
4,CCOc1ccc(Cl)cc1S(=O)(=O)n1cnc2ccccc21,inactive
5,O=C(Nc1ccc(O)c2c(=O)cc(-c3ccccc3Cl)oc12)c1ccc(Cl)c(Cl)c1,inactive
6,Cc1cc(NC(=O)CN2CCN(C)CC2)no1,inactive
7,Cc1csc(NC(=O)CSc2nc3[nH]ncc3c(=O)[nH]2)n1,inactive
8,CC(C)(C)c1csc(NC(=O)c2ccc3nccnc3c2)n1,"inconclusive: 15.8 µM [inhibitor, partial curve]"
9,Cc1ccc(CNc2nc(NCc3ccccc3)nc3ccsc23)c(C)c1,"inconclusive: 35.5 µM [inhibitor, single point]"
10,CN(C)S(=O)(=O)c1cccc(C(=O)OCC(=O)Nc2sccc2C(N)=O)c1,inactive
11,CCOc1cccc(NC(=O)CSc2sc3c(O)cc(=O)[nH]c3c2C#N)c1,"inconclusive: 20 µM [inhibitor, partial curve]"
12,CNC(=S)N(Cc1ccco1)Cc1cc2cc3c(cc2[nH]c1=O)OCCO3,"inconclusive: 25.1 µM [inhibitor, partial curve]"
13,O=C(COc1ccccc1)Nc1cccc(-c2ccc(N3CCOCC3)nn2)c1,inactive
14,O=C(Nc1ccc2c(c1)OCO2)c1n[nH]c(=O)c2ccccc12,"inconclusive: 15.8 µM [inhibitor, partial curve]"
15,COc1cccc(N2CCN(CC(=O)NC(=O)NCc3ccco3)CC2)c1,"inconclusive: 31.6 µM [inhibitor, partial curve]"
16,CC(=O)Nc1cccc2cc(O)ccc12,"inconclusive: 22.4 µM [inhibitor, partial curve]"
17,CN(C)C(CNC(=O)c1cc(-c2ccco2)nc2ccccc12)c1ccccc1 (centres undefined),"inconclusive: 1.41 µM [inhibitor, full curve]"
18,CCOC(=O)c1c(-c2ccco2)csc1NC(=O)COC(=O)c1cnc(C)cn1,"inconclusive: 7.08 µM [inhibitor, full curve]"
19,O=C(O)c1sccc1NC(=O)c1c(Cl)cccc1Cl,"inconclusive: 22.4 µM [inhibitor, partial curve]"
20,COc1ccc(-c2cc(=O)oc3cc(OC(=O)C4CCCCC4)c(Cl)cc23)cc1,"inconclusive: 22.4 µM [inhibitor, partial curve]"
21,CC(C)Sc1nc(N2CCOCC2)c2c(c1C#N)CC(C)(C)N(C)C2,inactive
22,CCOc1ccc(-c2ccc(SC)nn2)cc1,"inconclusive: 28.2 µM [inhibitor, partial curve]"
23,COc1ccc(C(=O)N2CCC(C(=O)Nc3ccc(C)cc3)CC2)cc1,inactive
24,COc1ccc2c(c1)c(=O)oc1c(C)c(OCc3cc(C(=O)O)oc3C)ccc12,active: 17.8 µM
25,CCCNC(=O)N(C)C[C@@H]1Oc2ncc(-c3ccncc3)cc2C(=O)N([C@H](C)CO)C[C@@H]1C,"inconclusive: 31.6 µM [inhibitor, single point]"

row,SMILES,Potency
1,NC(=O)c1c(NC(=O)CN2CCCC2)sc2c1CCCC2,inactive
2,CCc1ccc(N2CSC3=C(C#N)C(c4cccs4)CC(=O)N3C2)cc1 (centres undefined),active: 12.6 µM
3,CC(=O)c1ccc(OCc2c(-c3ccccc3)nnn2CC(=O)NS(=O)(=O)c2ccccc2C)cc1,"inconclusive: 39.8 µM [inhibitor, single point]"
4,CCOC(=O)CSc1ccc2nnc(-c3cccs3)n2n1,"inconclusive: 31.6 µM [inhibitor, partial curve]"
5,Cc1ccc(C)c(C2=NNC(=NCc3ccccc3)SC2)c1,inactive
6,CCn1nc(CC(=O)Nc2nnc(CC(=O)N3CCOCC3)s2)c2ccccc2c1=O,inactive
7,NC(=S)c1cc2ccc(O)cc2oc1=O,active: 14.1 µM
8,COc1ccccc1NC(=O)Nc1nc(CC(=O)Nc2cc(F)ccc2F)cs1,"inconclusive: 20 µM [inhibitor, partial curve]"
9,Cc1cccc(OCC(=O)Nc2cccc(C(=O)Nc3ccccc3C(=O)O)c2)c1,"inconclusive: 31.6 µM [inhibitor, partial curve]"
10,COC(=O)Cc1c(C)nc2nc(-c3ccc(C)cc3)[nH]n2c1=O,active: 6.31 µM
11,O=C(COc1ccc(-n2cnnn2)cc1)Nc1ccccc1Cl,"inconclusive: 11.2 µM [inhibitor, partial curve]"
12,O=c1[nH]c(N2CCOCC2)cc2ccccc12,inactive
13,Nc1nc(Nc2ccccc2F)sc1C(=O)c1ccccc1,active: 14.1 µM
14,COc1ccc(NC(=O)CSc2nc(-c3ccco3)nc3cc(=O)[nH]n23)cc1Cl,"inconclusive: 31.6 µM [inhibitor, partial curve]"
15,O=C(CN1CCCCC1)Nc1nnc(-c2ccc([N+](=O)[O-])cc2)s1,"inconclusive: 17.8 µM [inhibitor, partial curve]"
16,O=C(OCc1nnc(-c2ccccc2)o1)c1ccc(S(=O)(=O)NCc2ccco2)cc1,"inconclusive: 56.2 µM [inhibitor, partial curve]"
17,O=c1cc(O)c2sc(Nc3cccc(C(F)(F)F)c3)nc2[nH]1,"inconclusive: 15.8 µM [inhibitor, partial curve]"
18,CC(=O)c1ccc(NC(=O)c2cnn3ccccc23)cc1,active: 3.55 µM
19,COc1cc(OC)cc(-c2nnc(NC(=O)CCS(=O)(=O)c3ccc(C)cc3)o2)c1,inactive
20,O=C(NCc1ccccc1)C(c1ccccc1F)n1c(=O)c(-c2ccco2)nc2ccccc21 (centres undefined),"inconclusive: 22.4 µM [inhibitor, partial curve]"
21,O=C(NCc1ccco1)c1ccc(S(=O)(=O)N2CCOCC2)cc1,"inconclusive: 15.8 µM [inhibitor, partial curve]"
22,Cc1c(C(=O)O)sc2ncnc(N3CCCCC3C)c12 (centres undefined),active: 10 µM
23,COc1cccc(CNS(=O)(=O)c2ccccc2Br)c1OC,inactive
24,Cc1nc2ccc(NC3=NCCCCC3)cc2s1,"inconclusive: 15.8 µM [inhibitor, partial curve]"
